Test results published in PubChem BioAssay AID1347071 (National Center for Advancing Translational Sciences (NCATS), 2019).
In all, about 410,000 compounds went through this assay and about 260 (0.063%) were called active. This list was built around the results that the source calls inconclusive (neither active nor inactive); the mix of calls is not that of the screen. Calls come from the whole dose curve; as a rule, active = well fitted activation curve with a large enough effect; inconclusive = small, poorly fitted or top-dose-only effect; inactive = no such curve, though single readings can be large or run the other way. Potencies of inconclusive entries are left out as doubtful fits.

Experiment: qHTS for compounds that reverse cellular toxicity of Amyloid beta (A-beta) peptide in yeast: Primary Screen; note: nearly all actives have a fitted effect of over 55% in size
Details: yeast expressing A-beta42, growth rescue, OD600, 48 h; growth rescue: at 46.1 µM (top of the series), 0% DMSO, 100% iron-clioquinol control
Outline: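 Growth rescue measured by 600 nm absorbance after 48 h yeast culture at 30 C with compound. Values normalized between DMSO and an equimolar ferric chloride plus clioquinol control.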
Potency is the fitted concentration of half-maximal effect; tags give direction and shape of the fitted curve.

Row | SMILES | Potency | growth rescue
1 | Cc1ccc(NC(=O)CN(C)C(=O)c2cccc(-n3cccc3)c2)cc1 | inconclusive [activator, partial curve, poor fit] | –
2 | O=C(Nc1ccc(N2CCOCC2)c(Cl)c1)c1ccccc1Cl | inconclusive [activator, single point] | –
3 | CCOc1cccc(NC(=O)/C(C#N)=C/c2cccnc2)c1 | inconclusive [activator, partial curve] | –
4 | COc1cnc(N(C)C)nc1Sc1cccc(Cl)c1 | inconclusive [activator, partial curve, poor fit] | –
5 | COc1ccc(CC(=O)Nc2ccccc2C(C)=O)cc1S(=O)(=O)N1CCOCC1 | – | inactive: 9.9%
6 | COc1ccc(CC(=O)Nc2ccc(-c3cn4ccc(C)cc4n3)cc2)cc1 | – | inactive: 0.604%
7 | CCC(=O)N1CCc2cc(Br)cc(S(=O)(=O)CCC(=O)N(CC)Cc3ccccc3)c21 | – | inactive: -9.09%
8 | CC(C)(C)C(=O)OCc1ccc(C2=CC(=O)CC(C)(C)C2=O)cc1 | – | inactive: 1.47%
9 | CCOC(=O)c1csc(NC(=O)CSc2nnnn2CC)n1 | inconclusive [activator, full curve] | –
10 | N/C(=N\c1nc2ccccc2o1)NC(=O)c1ccccc1 | – | inactive: -9.6%
11 | O=C(Nc1cccc(S(=O)(=O)Nc2ccc(Cl)cc2)c1)c1ccc(Cl)nc1 | – | inactive: -1.51%
12 | O=C(CCS(=O)(=O)c1ccc(Cl)cc1)Oc1ccc2c(c1)OCO2 | inconclusive [activator, single point] | –
13 | Oc1c(CN2CCN(c3ccccn3)CC2)cc(Cl)c2cccnc12 | inconclusive [activator, single point] | –
14 | O=C(NCC(c1ccccc1)c1ccccc1)c1nn(-c2ccccc2F)nc1CO | – | inactive: -16.4%
15 | COc1ccc(/C=C2/SC(=S)N(CC(=O)O)C2=O)cc1OCc1ccc(Cl)cc1 | inconclusive [activator, partial curve] | –
16 | Nc1nnc(-c2ccc(Cl)cc2Cl)s1 | – | inactive: -4.26%
17 | COc1ccccc1N1CCN(C(=O)c2cc3ccc4ccc(C)[nH]c4c3n2)CC1 | – | inactive: -28.7%
18 | Cc1nc(Sc2ccccc2)c(C#N)c(C)c1[N+](=O)[O-] | inconclusive [activator, full curve, poor fit] | –
19 | Cc1cc(Br)ccc1SCC(=O)Nc1cccnc1 | inconclusive [activator, single point] | –
20 | Cc1cccc(NC(=O)Cc2csc(COc3cccc(C)c3)n2)c1 | inconclusive [activator, single point] | –
21 | CC(=O)Nc1ccc(NC(=O)CS(=O)(=O)c2cn(CC(=O)N3CCC(C)CC3)c3ccccc23)cc1 | – | inactive: 2.95%
22 | CCC1CN(C(=O)Nc2ccc(C(=O)O)cc2)c2cc(Cl)ccc2O1 (stereo not drawn) | – | inactive: -3.06%
23 | CCCCCCN1C[C@@H](n2cc(-c3ccc(F)cc3)nn2)[C@H](O)C[C@@H]1c1ccccc1 | inconclusive [activator, single point] | –
24 | CCCn1cc2c(c1-c1cccc(C)c1)c(=O)n(C)c(=O)n2C | – | inactive: -12.4%
25 | CCCCCCCn1c(NC(=O)CC)nc2ccccc21 | active: 22.4 µM | –

Row | SMILES | Potency | growth rescue
26 | CCCCCCCCNC(=O)c1cnccn1 | inconclusive [activator, single point] | –
27 | COc1ccc(NS(=O)(=O)c2ccc(N3CCCCC3)c(N)c2)cc1 | inconclusive [activator, full curve, poor fit] | –
28 | COc1ccccc1NC(=O)CSc1nnc(COc2ccccc2C)o1 | inconclusive [activator, single point] | –
29 | O=C(NCc1ccc(N2CCCC2=O)cc1)NC1CCCCC1 | inconclusive [activator, single point] | –
30 | COc1ccc(OC)c(S(=O)(=O)Nc2ccc(Oc3ccccc3)cc2)c1 | inconclusive [activator, full curve, poor fit] | –
31 | COc1cccc(NC(=S)NN2C(C)CCCC2C)c1 (stereo not drawn) | inconclusive [activator, partial curve] | –
32 | Cc1ccc(S(=O)(=O)N2CCCC2C(=O)OCc2nc3ccccc3s2)cc1 (stereo not drawn) | inconclusive [activator, partial curve, poor fit] | –
33 | O=[N+]([O-])c1ccc(-c2nc(Cl)c3c(n2)CCCC3)o1 | – | inactive: -69.9%
34 | CC(C)CC(=O)NC(=S)Nc1ccccc1N1CCCC1 | active: 7.08 µM | –
35 | NC(=O)CSc1nnc(Cc2ccc3c(c2)OCO3)n1C1CCCCC1 | inconclusive [activator, full curve] | –
36 | CCC1(CC)N=C(c2ccccc2)C(=S)N1 | inconclusive [activator, single point] | –
37 | Cc1cccc(NC(=O)CN2CCN(C(=O)c3oc4c(Cl)cccc4c3C)CC2)c1C | inconclusive [activator, single point] | –
38 | CC(OC(=O)C1CCCCC1)C(=O)Nc1cccc([N+](=O)[O-])c1 (stereo not drawn) | inconclusive [activator, partial curve] | –
39 | Cc1cc(C(=O)OCC(=O)Nc2cccc([N+](=O)[O-])c2)c(C)o1 | – | inactive: 7.35%
40 | CCN(CC)CCNC(=O)c1ccc2c(=O)n3nc(Nc4ccccc4)sc3nc2c1 | – | inactive: -10.2%
41 | Cc1ccc2nc(SCC(=O)N3CCC(Cc4ccccc4)CC3)nc(=O)n2c1 | – | inactive: -18.3%
42 | CCCCOP(=O)(c1ccc(N(C)C)cc1)C(O)c1ccc(C(C)C)cc1 (stereo not drawn) | inconclusive [activator, single point] | –
43 | O=C(CSc1ccc(Br)cc1)Nc1ccccc1N1CCOCC1 | – | inactive: -7.27%
44 | Cc1cccn2c(Nc3ccccc3)c(-c3ccccn3)nc12 | inconclusive [activator, full curve] | –
45 | O=c1c([N+](=O)[O-])cc(C(F)(F)F)cn1Cc1cccc(Cl)c1 | inconclusive [activator, partial curve, poor fit] | –
46 | COc1ccc2c(Sc3ccccc3)c(C(=O)NCc3cc(Br)ccc3OC)[nH]c2c1 | – | inactive: -26.1%
47 | O=C1CC(c2ccc(F)cc2)CC2=C1C=Nc1ccccc1N2 (stereo not drawn) | – | inactive: -1.16%
48 | Cc1ccc(CNC(=O)C(C)n2c(=O)cc(-c3ccccc3)c3c(C)nn(C)c32)cc1 (stereo not drawn) | – | inactive: -14.6%
49 | CC(C)(C)c1ccc(C(=O)NC(=S)NCc2ccco2)cc1 | inconclusive [activator, partial curve] | –
50 | Cc1oc(-c2ccccc2Cl)nc1CSc1nncn2c1cc1occc12 | – | inactive: -7.1%

Row | SMILES | Potency | growth rescue
51 | O=C(Nc1nnc(-c2ccccc2)o1)c1cc(-c2cccs2)nc2ccccc12 | inconclusive [activator, single point] | –
52 | O=C(Cc1c(F)cccc1Cl)Nc1nc2ccccc2s1 | inconclusive [activator, partial curve, poor fit] | –
53 | CCCCOC(=O)c1ccc(N/C(=N\S(=O)(=O)c2ccccc2)c2ccccc2)cc1 | inconclusive [activator, partial curve] | –
54 | CC(C)c1ccc(NC(=O)/C(C#N)=C/c2ccncc2)cc1 | inconclusive [activator, full curve] | –
55 | CCOc1cc(C2C(C(=O)OC)=C(C)NC3=C2C(=O)c2ccccc23)cc(Br)c1OCC (stereo not drawn) | – | inactive: -6.37%
56 | CSC1=NCCN1C(=O)c1c(F)cccc1F | inconclusive [activator, single point] | –
57 | CCn1c(SCC(=O)OC)nc2cc(S(=O)(=O)N3CCOCC3)ccc21 | – | inactive: 19%
58 | CCCCC(=O)NC(c1ccc(N(C)C)cc1)c1ccc2cccnc2c1O (stereo not drawn) | inconclusive [activator, single point] | –
59 | CCc1c(C)nc2nc(-c3ccccc3)nn2c1NCc1ccc(C)cc1 | inconclusive [activator, partial curve, poor fit] | –
60 | CC(C)(C)NC(=S)NCc1ccc2c(c1)OCO2 | inconclusive [activator, partial curve, poor fit] | –
61 | Cc1cccc(N2CC(C(=O)Nc3nnc(SCc4ccccn4)s3)CC2=O)c1 (stereo not drawn) | – | inactive: 5.58%
62 | COCCCNC(=O)C(Cc1ccccc1)NS(=O)(=O)c1ccc2c(c1)c(=O)n(C)c(=O)n2C (stereo not drawn) | inconclusive [activator, single point] | –
63 | CC(C)(C)NCC(O)(c1ccc(Cl)cc1)c1ccc(Cl)cc1 | inconclusive [activator, partial curve, poor fit] | –
64 | O=C(CC(CC(=O)c1ccccc1)c1ccncc1)c1ccccc1 | inconclusive [activator, full curve] | –
65 | COC(=O)C1CCN(C(=O)/C(C)=C\c2ccccc2)CC1 | – | inactive: -12.8%
66 | Cc1ccc(C2/C(=C(/O)c3ccc(Br)cc3)C(=O)C(=O)N2Cc2ccco2)o1 (stereo not drawn) | inconclusive [activator, partial curve, poor fit] | –
67 | O=C(c1cc(F)cc(F)c1)N1CCC(c2nc(-c3ccc(S(=O)(=O)N4CCCC4)cc3)no2)CC1 | – | inactive: -4.67%
68 | O=C(Cc1coc2ccc3ccccc3c12)NC1CCCc2ccccc21 (stereo not drawn) | inconclusive [activator, partial curve, poor fit] | –
69 | CC1CC(C)CN(C(=S)Nc2ccc(SC(F)F)cc2)C1 (stereo not drawn) | inconclusive [activator, partial curve, poor fit] | –
70 | COc1cccc(C(=O)N(Cc2nc(-c3ccc(C)cc3)no2)C(C)C)c1 | – | inactive: -7.38%
71 | O=C(COc1ccc(Cl)cc1)NCCc1csc(-c2cccc(F)c2)n1 | – | inactive: -7.91%
72 | COC(=O)CN(C(=S)Nc1ccccc1)C1CC(=O)N(c2ccc(OC)cc2)C1=O (stereo not drawn) | inconclusive [activator, single point] | –
73 | CCOc1ccc(NC(=O)COC(=O)CC2CCCCC2)cc1 | inconclusive [activator, single point] | –
